# Measured values from ChEMBL document CHEMBL4888484, “Replenishing the malaria drug discovery pipeline: Screening and hit evaluation of the MMV Hit Generation Library 1 (HGL1) against asexual blood stage Plasmodium falciparum ,using a nano luciferase reporter read-out” (2022).
# The campaign covered roughly 150,000 compounds. About 540 (0.36%) showed an effect of 50% or more. Some of the results follow.
# Tested on: Plasmodium falciparum
# Experiment: Primary screen in NF54 nanoGlo assay, in single point, at 2uM, 72h; a lower Z score goes with more inhibition
# Format: functional, Erythrocyte
# Conditions: timepoint 72 hour
SMILES,% Inhibition,Z score
C[C@H]1CCCN(C(=O)c2cnc(O)c3ncccc23)C1,-19%,2
Cc1cc(C(=O)NCCN2CCOCC2)on1,-4%,0.69
COc1cc(Cl)c(C)cc1NC(=O)Cn1cnc2nc(N3CCCCC3)sc2c1=O,-1%,0.19
Cc1cc(=O)[nH]c(CCNC(=O)Nc2ccc3[nH]c(C(C)C)nc3c2)n1,-5%,0.78
CC(NC(=O)CCC1CCCCO1)C1(N2CCOCC2)CCCC1 (stereo not drawn),-3%,0.39
Cc1cc(-c2noc(C3CC4(CC4)C3)n2)cc(C)c1CS(N)(=O)=O,1%,-0.18
CC(C)CCN1C[C@]2(CCCN(C(=O)c3ccc(O)c(Cl)c3)C2)CCC1=O,-13%,1.22
CCCc1nnsc1C(=O)N(C)Cc1nnc(CC)o1,-9%,1.28
CCN(CC(=O)NC1(C#N)CCCC1)C[C@H](C)C(=O)OC,-12%,1.68
Cc1cccc(OCc2nc(CC(=O)NCc3ccco3)cs2)c1,-16%,1.37
CCC[C@]1(COC)CCCN1C(=O)c1cc(N2CCCC2=O)ccc1F,7%,-0.79
C[C@H](NCCOCCO)c1ncc(Br)cc1Cl,-4%,0.44
CCc1ncnc(CC)c1C(=O)N1CC[C@@H]2NC(=O)OC[C@H]2C1,-1%,0.09
CC(C)CC[C@H](NC(=O)CCN1C(=O)CCC1=O)C(C)(C)C,-13%,2.36
O=C(O)c1ccc(N2CCN(CC(=O)N3CCCC3)CC2)c(NS(=O)(=O)c2ccc(F)cc2)c1,-1%,0.05
c1cnc(N2CCC[C@H](NC3CCCC3)C2)nc1,5%,-0.55
COc1cc2c(cc1OC)[C@H](c1cccc(NS(C)(=O)=O)c1)OCC2,1%,-0.14
CCN(CC)c1ccc(CN(CCN(C)C)C(=O)c2ccccc2C)c(OS(=O)(=O)CC)c1,-3%,0.65
Cc1nc(C)c(F)c(N2CCN(CCc3cnccn3)CC2)n1,-16%,1.91
O=S(=O)(/N=C(\c1ccc(Cl)cc1)N1CCOCC1)c1ccc(Br)cc1,-4%,0.54
COc1ccc(COCC(=O)N2CCCn3ncnc32)cc1,5%,-0.57
CCN1CCN(c2nc3ncn(CC(=O)Nc4cc(C(F)(F)F)ccc4Cl)c(=O)c3s2)CC1,8%,-1.13
CC[C@H](C)NC(=O)c1ccc(C)nc1C1CCN(C(=O)c2ccoc2)CC1,-12%,1.94
CC(NCc1csc(-c2ccccn2)n1)C1CC2CCC1C2 (stereo not drawn),4%,-0.33
O=C(c1snc(O)c1Cl)N1CC(C2CC2)C1C1CC1 (stereo not drawn),-12%,1.53
C=CCN(Cc1cccc(C(=O)NC)c1)S(=O)(=O)C(C)(C)C,10%,-1.16
Cc1cc(C)n(-c2ccc(CCNS(=O)(=O)[C@H]3CCOC3)cc2)n1,-8%,0.72

SMILES,% Inhibition,Z score
Cn1cnnc1-c1cncc(NS(=O)(=O)Cc2ccccc2)c1,-5%,0.58
Cc1ncc2n1C[C@@H](C(=O)NCc1ccccc1)CC2,-1%,0.25
COC1(CNC(=O)NC[C@H](O)c2cc(C)cc(C)c2)CCOCC1,6%,-0.79
C=CC[C@]1(C(=O)O)CCCN(C(=O)CC2CCC2)C1,2%,-0.32
Cc1n[nH]cc1CNC(=O)N1CCCC2(CCCCC2)C1,-15%,2
Cc1ccc(C)c(Cn2c(C(=O)NCc3ccccn3)cc3oc(C)cc32)c1,-3%,0.3
CC(C)Cc1nc(CNC(=O)Cc2ccncc2)no1,-4%,0.54
CC(C)Cc1cc(CNC(=O)CN2CCCCCCC2)on1,-5%,0.94
O=C(Cn1ccc2ccccc21)N1CCO[C@H](c2ccccc2)C1,0%,0.03
O=C(c1ccc(-c2ccccc2F)o1)N1CCOC2(CCC2)C1,-13%,1.45
Cc1cc(CNC2CCN(S(C)(=O)=O)CC2)c(C)n1-c1cc(Cl)cc(Cl)c1,-9%,1.24
OC1(c2ccccn2)CCNCC1N1CC[C@H](Oc2ccccc2)C1 (stereo partly drawn),4%,-0.71
O=C(Nc1nc2c(ccc3ccccc32)s1)c1cc(-c2ccccc2)nc2ccccc12,-12%,2.13
COc1ccc(-c2ccnc3cc(C(=O)Nc4ccc(C)cc4)nn23)cc1OC,-17%,1.69
COCCNC(=O)CCn1cnc2c(-c3ccc(F)cc3)noc2c1=O,1%,-0.09
O=C(CC1CCCC1)NCCN1C(=O)COC1=O,13%,-1.67
CC(C)c1nnc(NC(=O)CCCc2ccccc2)s1,-11%,2.07
CCN1CCN(C(=O)Cn2cc(S(=O)(=O)c3ccc(C)cc3)c3ccccc32)CC1,-18%,2.33
CC(C)Oc1ccc(C(=O)N2[C@@H]3CC[C@H]2CC(NC(=O)c2ccc(F)cc2)C3)cc1 (stereo partly drawn),-10%,1.79
Cc1ccc(CC2(NC(=O)CN3CCOC3=O)CC2)cc1,1%,-0.13
O=C(N[C@H]1CCOc2ccccc21)C1CCC1,-1%,0.18
O=C(NCC1CCN(C2Cc3ccccc3C2)CC1)c1ccncn1,1%,-0.18
CCc1nnc(COC(=O)c2csc(NC)n2)o1,33%,-1.12
Cc1ccc(C(=O)NCC2CCCCC2)c(C2CCN(Cc3cc(C)c(C)o3)CC2)n1,-3%,0.28
CCc1ccc(-c2c[nH]c(NC(=O)[C@]3(OC)CCOC3)n2)cc1,5%,-0.59
CC(CS(C)(=O)=O)N(C)C(=O)C1CCCC2CCCCC21 (stereo not drawn),-9%,1.28
CCOc1cc(CN2CCC([C@]3(Cc4cccc(OC)c4)NC(=O)N(C)C3=O)CC2)ccc1O,10%,-1.46
